PubChem BioAssay AID488969 (Vanderbilt High Throughput Screening Facility, 2010)
The full ranking holds about 110,000 compounds; the median of “z-score” is about -0.1, and the highest 2% start at about 2. The list shows a part of the results.

Each compound was assayed against Metabotropic glutamate receptor 8 (Rattus norvegicus) (UniProt P70579) (assay: mGluR8 Gi/Go-coupled signaling modulation – cell-based, rat, thallium flux, HTS, primary screen (AID 488969)). Conditions: HEK293 rat mGluR8, GIRK (G protein-gated inwardly rectifying potassium channel) thallium flux, FluoZin2; at 10 µM; stronger effect = higher value; submaximal glutamate (EC20) added with thallium.
Chain of UniProt P70579 (P70579 whole entry, looked up): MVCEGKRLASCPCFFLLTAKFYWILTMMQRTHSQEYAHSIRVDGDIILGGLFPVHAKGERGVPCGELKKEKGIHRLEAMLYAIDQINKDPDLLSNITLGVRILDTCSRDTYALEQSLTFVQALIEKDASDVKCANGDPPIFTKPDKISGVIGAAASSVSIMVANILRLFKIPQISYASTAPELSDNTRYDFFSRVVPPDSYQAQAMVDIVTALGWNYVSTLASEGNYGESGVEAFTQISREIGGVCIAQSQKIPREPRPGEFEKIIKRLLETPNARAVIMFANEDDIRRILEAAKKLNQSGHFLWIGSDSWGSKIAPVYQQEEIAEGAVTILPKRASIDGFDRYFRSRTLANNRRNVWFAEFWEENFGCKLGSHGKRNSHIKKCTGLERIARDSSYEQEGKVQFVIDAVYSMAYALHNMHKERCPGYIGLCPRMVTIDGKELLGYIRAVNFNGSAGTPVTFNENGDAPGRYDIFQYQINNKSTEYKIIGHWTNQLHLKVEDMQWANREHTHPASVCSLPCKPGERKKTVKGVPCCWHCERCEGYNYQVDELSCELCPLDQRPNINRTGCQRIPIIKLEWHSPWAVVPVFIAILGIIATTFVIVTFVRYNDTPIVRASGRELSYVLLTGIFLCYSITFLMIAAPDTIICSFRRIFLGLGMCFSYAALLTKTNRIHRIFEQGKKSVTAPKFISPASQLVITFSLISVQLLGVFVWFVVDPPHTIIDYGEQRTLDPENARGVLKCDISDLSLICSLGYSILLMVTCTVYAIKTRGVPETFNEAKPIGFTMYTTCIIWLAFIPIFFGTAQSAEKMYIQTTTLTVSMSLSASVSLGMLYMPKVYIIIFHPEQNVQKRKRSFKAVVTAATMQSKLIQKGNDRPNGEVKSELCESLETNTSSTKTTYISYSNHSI

SMILES | z-score
CCc1ccc2nc3nc(C)cc(C)c3c(N)c2c1 | 0.359
Cc1ccc(S(=O)(=O)c2c(N)n(-c3ccccc3)c3nc4ccccc4nc23)cc1 | -0.0323
CCn1c(CCNC(=O)c2ccc(F)cc2)nc2ccccc21 | 0.16
CCC(C)(C)n1nnnc1C(C(C)C)N(CCN1CCOCC1)Cc1cc2cccc(C)c2[nH]c1=O (configuration not stated) | -0.0184
CCCc1nc(N)c(C#N)c(-c2ccco2)c1CC | 0.813
CCN(CC)C(=O)c1n[nH]c(=O)c2ccccc12 | 0.0104
CC(C)(C)n1nnnc1CN1CCC(NC(=O)NC2CCCCC2)CC1 | -0.255
CCc1ccc(NC(=O)Cn2c(=O)oc3cc(S(=O)(=O)N4CCOCC4)ccc32)cc1 | 0.578
Cc1ccc(C(=O)Nc2nc(=O)n(C)s2)cc1 | -0.309
O=C(NNC(=O)c1cnccn1)c1cccc([N+](=O)[O-])c1 | -0.417
COCCCNCCCCOc1ccc(Br)cc1C | 0.433
Cc1ccc(Nc2nc(N)nc(CSCCO)n2)cc1 | 0.139
Cc1ccc(S(=O)(=O)/N=C(\CN2CCOCC2)N2CCOCC2)cc1 | -0.0131
CCCCC(=O)NCCNC(=O)c1cc(OCC(F)(F)F)ccc1OCC(F)(F)F | 0.45
COc1ccc(CNC(=O)c2csc(Cc3ccccc3)n2)cc1 | -0.391
O=C(CCN1C(=O)c2ccccc2C1=O)C1=NN[C@@H]2C(=O)N(c3ccc(F)cc3)C(=O)[C@H]12 | 0.122
N#C/C(=C1\C(=O)Nc2c(Cl)cc(Cl)cc21)c1nnc2n1CCCCC2 | -0.636
Cc1ccc(S(=O)(=O)/C(C#N)=C/c2c(N3CCN(C)CC3)nc3c(C)cccn3c2=O)cc1 | -0.809
Cn1c(Cn2nnc3ccccc32)nnc1SCC(=O)c1ccccc1F | -1.15
CCN(Cc1ccccc1)c1ccc(/C=N/NC(=O)c2cccc(S(=O)(=O)N3CCOCC3)c2)cc1 | -0.523
CCOC(=O)c1ccccc1N1C(=O)C2Sc3[nH]c(=O)sc3C(/C=C/c3ccccc3)C2C1=O (configuration not stated) | -0.495
CCNc1nc(OC)nc(Oc2ccc(C(=O)OC)cc2)n1 | -0.368
O=C(c1ccco1)N1CCN(C(c2cccs2)c2nnnn2C2CCCC2)CC1 (configuration not stated) | 0.254
Cn1c(=O)c2c3c(sc2n2cnnc12)CCC3 | -0.152

SMILES | z-score
CC(C(=O)Nc1ccccc1F)N1C(=O)c2ccccc2C1=O (configuration not stated) | 1.07
COc1ccc(-n2c(C)csc2=S)cc1 | 0.000578
NC(=O)COc1cccc2cccnc12 | 0.764
COC(=O)N/N=C/c1ccc([N+](=O)[O-])o1 | -0.0263
Nc1nonc1C(=O)NCCNCc1ccccc1 | 0.0798
Cc1ccc2nc(-c3ccc4c(c3)OCCO4)cc(C(=O)O)c2c1 | -1.44
CC(C)CC(NC(=O)c1ccc(Cl)cc1)C(=O)O (configuration not stated) | -0.0425
COc1ccc(Cn2nnnc2CN2CCc3ccccc32)cc1 | -0.875
S=c1[nH]nc(COc2ccccc2)n1/N=C/c1cccnc1 | -0.289
CCOC(=O)Cn1cnc2c(nnn2Cc2ccc(Cl)cc2)c1=O | -0.202
CN(C)c1nc(N(C)C)nc(N2CCCCC2)n1 | -0.209
O=[N+]([O-])c1ccc(/C=N/Nc2cc(Cl)nc(-c3ccccc3)n2)cc1 | 0.262
CCOC(=O)CCn1c(CC(=O)OCC)nc2ccccc21 | 0.435
O=C(CSc1nnnn1C1CCCCC1)Nc1nc2c(s1)CCCC2 | -0.656
COc1cccc(C2CC(c3cccs3)=NN2C(=O)CSC2=NN3CCCC(=O)N=C3S2)c1OC (configuration not stated) | 1.55
CCn1c(SC)nnc1-c1ccc(S(=O)(=O)N2CCCCC2)cc1 | 0.484
CCSc1nnc(NC(=O)c2cc(-c3ccc(C)c(C)c3O)n[nH]2)s1 | -0.0151
CCCc1nc(SCc2cccnc2)c2c(=O)n(C)c(=O)n(C)c2n1 | -0.67
COc1cccc(C2CC3(CC(C)(C)NC(=S)N3)Oc3cc(O)ccc32)c1 (configuration not stated) | 0.0131
Cc1ccc(Cn2ccc(NC(=O)c3cc(-c4ccc(Cl)cc4)on3)n2)cc1 | -0.187
CC(C(=O)NC(=O)NCc1ccccc1)N1C(=O)c2ccccc2C1=O (configuration not stated) | -0.0608
CCOC(=O)c1sc2nc(C)c3c(c2c1N)CC(C)(C)OC3 | 0.384
Cc1ccc(Cn2c(SCC(C)C)nc3c2c(=O)n(C)c(=O)n3C)cc1 | -0.493
CCCCNC(=O)C1CC(=O)N(C2CCCC2)C1 (configuration not stated) | -0.189

SMILES | z-score
CC(C)OCCCNC(=O)C1CC(=O)N(C2CCCCCCC2)C1 (configuration not stated) | 0.293
Clc1cccc(Cl)c1/C=C/c1nc2ccccc2[nH]1 | 0.0702
COc1ccc(CCNC(=O)c2sc(=S)n(C)c2N)cc1 | 0.0297
CCOc1ccc(N(CC(=O)N/N=C/c2cc([N+](=O)[O-])ccc2Cl)S(C)(=O)=O)cc1 | -0.365
CN(C)CCOC(=O)c1cccc(Br)c1 | -0.158
Cc1ccc(S(=O)(=O)N/N=C/c2ccc(C(=O)O)cc2)cc1 | -0.132
O=C(O)c1ccccc1C(=O)Nc1nccs1 | -0.213
Cc1ccc(C(c2c(C)[nH][nH]c2=O)c2c(C)[nH][nH]c2=O)cc1[N+](=O)[O-] | -0.0186
CCn1cc(C(=O)N2CCOCC2)c(=O)c2cc(S(=O)(=O)N(C)C)ccc21 | -0.0559
O=C(CSc1n[nH]c(-c2ccccc2Br)n1)NCCN1C(=O)CSC1=O | 0.0185
Cc1cccc(C(=O)NC(=S)Nc2ccc(S(=O)(=O)N3CCN(C)CC3)cc2)c1 | 0.935
CCC(Cc1ccccc1)NC(=O)CCn1cccc1 (configuration not stated) | -0.203
Cc1cnc(NC(=O)CSc2ncn(-c3ccccc3)n2)s1 | -0.143
CCOC(=O)NC(=O)CSc1nnnn1-c1ccc(Cl)cc1 | -0.258
CCOC(=O)c1c(NC(NC(C)=O)C(Cl)(Cl)Cl)sc2c1CCCC2 (configuration not stated) | -2.34
O=C(c1ccccc1NS(=O)(=O)c1ccc(Cl)cc1)N1CCc2ccccc21 | -0.000723
FC(F)(F)C1=CC(c2ccc(Br)cc2)=NCCN1 | 0.15
CC(=C/c1ccc(C(C)C)cc1)/C=N/NC(=O)Cn1nc(C)cc1C | -0.122
CCOC(=O)N1CCN(Cc2nc(N)nc(Nc3ccc(C)cc3)n2)CC1 | -0.0413
Cc1cc(Cl)ccc1NC(=O)Nc1c(C)n(-c2ccccc2)c(=O)n1C | -0.461
CCCCc1oc2c(c(=O)c1C)C(=O)CC(c1ccccc1)C2 (configuration not stated) | -1.66
CCC1CCCCN1CCCNC(=O)COc1cc(=O)n(C)c2ccccc12 (configuration not stated) | 0.76
Cc1cccc(NC(=O)COc2nsnc2N2CCOCC2)c1 | -1.18
CNC(=O)NC(=S)NC(=O)c1ccc(OC)cc1 | -0.157
